Data as given in PMC6919601, “Identification of Plasmodium dipeptidyl aminopeptidase allosteric inhibitors by high throughput screening” (PLoS ONE, 2019).
The whole screen tested about 110,000 compounds, of which about 230 (0.21%) showed an effect of 50% or more. The list shows a part of the results.

Target: DPAP1 (Plasmodium falciparum, UniProt Q8IIJ9)
Assay: primary screen, percent inhibition; read by cleavage of a fluorogenic dipeptide substrate; higher = more effect of the substance
Set-up: species or system P. falciparum D10 trophozoite lysates; single well
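Note: 30 min substrate incubation versus DMSO and 10 µM JCP410 controls.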

Chain of DPAP1 (Q8IIJ9 whole entry, looked up): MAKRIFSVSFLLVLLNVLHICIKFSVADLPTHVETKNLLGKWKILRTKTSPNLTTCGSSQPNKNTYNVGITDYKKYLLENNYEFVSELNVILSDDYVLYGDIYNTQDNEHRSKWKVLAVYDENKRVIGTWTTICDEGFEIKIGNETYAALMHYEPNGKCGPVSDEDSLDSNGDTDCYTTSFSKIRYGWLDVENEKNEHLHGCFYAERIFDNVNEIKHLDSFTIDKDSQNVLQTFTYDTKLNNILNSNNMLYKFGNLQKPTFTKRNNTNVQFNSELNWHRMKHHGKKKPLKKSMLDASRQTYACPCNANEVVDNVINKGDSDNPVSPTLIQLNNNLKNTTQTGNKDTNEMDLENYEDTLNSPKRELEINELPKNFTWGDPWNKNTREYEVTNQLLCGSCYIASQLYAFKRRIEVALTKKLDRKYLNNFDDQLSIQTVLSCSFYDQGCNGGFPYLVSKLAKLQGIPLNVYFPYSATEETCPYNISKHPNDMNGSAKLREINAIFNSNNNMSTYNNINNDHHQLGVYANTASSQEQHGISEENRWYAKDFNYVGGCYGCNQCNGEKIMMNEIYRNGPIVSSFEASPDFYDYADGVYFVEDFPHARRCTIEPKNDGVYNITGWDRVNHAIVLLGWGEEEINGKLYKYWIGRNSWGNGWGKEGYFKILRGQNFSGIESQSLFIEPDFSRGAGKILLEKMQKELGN

Row | SMILES | % Inhibition @ 10 uM
1 | O=C(C1=C(O)C(=O)N(c2ccccn2)C1c1cccnc1)c1cccc(Br)c1 (stereo not shown) | -5.82%
2 | CC(C)N1CCN(c2nc3c(N)ncnc3[nH]2)CC1 | -1.15%
3 | Cc1cc2nsnc2c(S(=O)(=O)N2CCN(C)CC2)c1C | -1.33%
4 | CC(C)(C)c1ccc(-c2nc3cc(N)ccc3o2)cc1 | -2.03%
5 | O=C(C(NS(=O)(=O)c1cccc2nsnc12)c1ccccc1)N1CCc2ccccc2C1 (stereo not shown) | -3.23%
6 | Cc1cc(C)n2nc(SCC(=O)N3CCN(c4ccccn4)CC3)nc2n1 | -4.29%
7 | N#CCNC(=O)C(Cc1ccc(O)c(I)c1)NC(=O)c1ccc(N2CCOCC2)cc1 (stereo not shown) | -4.72%
8 | CCc1nc(O)c2oc3ccccc3c2n1 | 2.46%
9 | CCSc1ncc(Cl)c(C(=O)N(Cc2ccc(OC)c(OC)c2)C2CCS(=O)(=O)C2)n1 (stereo not shown) | 0.569%
10 | COc1ccc(CCC(=O)Nc2cccc(Cl)c2)cc1 | -0.318%
11 | O=S1(=O)N=C(Nc2ccc(Cl)c(C(F)(F)F)c2)c2ccccc21 | -2.05%
12 | COc1ccc(NCc2c(Cl)cccc2Cl)cc1 | 3.48%
13 | Cc1nc2c(-c3ccccc3)c(C)nn2c(O)c1Cc1ccccc1 | -0.339%
14 | O=C(NCCc1ccc(Cl)cc1)C(CS(=O)(=O)Cc1ccccc1)N1Cc2ccccc2C1=O (stereo not shown) | -2.69%
15 | COc1ccc(CN2CCN(Cc3cccn3C)CC2)c(OC)c1OC | -3.4%
16 | Cc1cc(C)cc(NC(=O)CCCC(=O)Nc2cc(C)cc(C)c2)c1 | -0.68%
17 | Cc1nc2cc(S(=O)(=O)N3CCC(C(=O)NCCC4=CCCCC4)CC3)ccc2n1C1CCCC1 | -0.0309%
18 | COc1ccc2c(c1)C(S(=O)(=O)c1ccc(C)cc1)c1ccccc1O2 (stereo not shown) | -1.69%
19 | c1ccc2sc(SCCCN3CCCCC3)nc2c1 | -3.93%
20 | COc1ccc(/C(O)=C/C=N/Cc2ccc(C)cc2)cc1 | -0.105%
21 | CCCCn1c(=O)cc(C)n(-c2ccccc2)c1=O | 1.19%
22 | COc1cc(C=C2C(=O)NC(=O)NC2=O)cc(Cl)c1O | 2.7%
23 | COc1ccc(-c2cc(C(F)(F)F)n3ncc(C(=O)N(C)Cc4cn(C)nc4C)c3n2)cc1OC | 3.9%
24 | O=C(Cn1c(-c2cccs2)cc2ccccc21)NCc1cccc(F)c1 | -5.15%
25 | Cc1ccc(NC(=O)c2c(O)nc3c(c2O)CCCC3)nc1 | 1.2%
26 | Cc1nn(CC(=O)NCCCc2ccccc2)c(=O)c2c1sc1ccccc12 | -2.13%
27 | CC12CN3CC(c4ccccc4)(CN(C1)C3c1ccco1)C2=O (stereo not shown) | -4.02%
28 | COc1ccc(CNCCc2c[nH]c3ccc(OC)cc23)cc1 | -1.11%
